One molecule from publication PMC8015715 (Genes & Development, 2021) can be followed below.

The assay addresses T1, GST-tagged Rbm38-S195D (human, UniProt Q9H0Z9 1-239, S195D).
T1 sequence (looked up): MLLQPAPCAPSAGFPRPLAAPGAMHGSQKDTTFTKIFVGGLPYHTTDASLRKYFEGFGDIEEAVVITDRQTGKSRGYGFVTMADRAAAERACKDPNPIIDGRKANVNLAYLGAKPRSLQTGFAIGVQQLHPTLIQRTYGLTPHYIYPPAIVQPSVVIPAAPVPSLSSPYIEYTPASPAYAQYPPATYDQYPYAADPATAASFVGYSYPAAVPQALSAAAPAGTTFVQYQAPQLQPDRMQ
Put plainly: pull-down.

B1: recombinant eIF4E-D202K (natural protein)
chain: not shown
For the molecule B1, the binding result is “binds”.
